# From patent US9873709B2 (priority 2013, dated 2018)
# Biological target: isolated recombinant JAK1 kinase domain (Homo sapiens (Human), UniProt P23458)
# Details: read-out: JAK1 Ki; isolated recombinant JAK1 kinase domain, 25 μM ATP
row,Compound,Ki
1,"O=C(c1ccc(Nc2nc3c(N4CCC(O)(c5ccc(Cl)cc5)CC4)cccn3n2)cc1)N1CCCC2(CCCNC2)C1 (centres unmarked) [Example 1-215, [4-[[8-[4-(4-chlorophenyl)-4-hydroxy-1-piperidyl]-[1,2,4]triazolo[1,5-a]pyridin-2-yl]amino]phenyl]-(2,8-diazaspiro[5.5]undecan-2-yl)methanone]",2.28 nM
2,"O=C(c1ccc(Nc2nc3c(N4CCC(O)(c5ccc(Cl)cc5)CC4)cccn3n2)cc1)N1CCC2(CCCNC2)CC1 [Example 1-217, [4-[[8-[4-(4-chlorophenyl)-4-hydroxy-1-piperidyl]-[1,2,4]triazolo[1,5-a]pyridin-2-yl]amino]phenyl]-(2,9-diazaspiro[5.5]undecan-9-yl)methanone]",2.3 nM
3,"O=C(c1ccc(Nc2nc3c(N4CCC(O)(c5ccc(Cl)cc5)CC4)cccn3n2)cc1)N1CCCC2(CCCCN2)C1 (centres unmarked) [Example 1-219, [4-[[8-[4-(4-chlorophenyl)-4-hydroxy-1-piperidyl]-[1,2,4]triazolo[1,5-a]pyridin-2-yl]amino]phenyl]-(1,8-diazaspiro[5.5]undecan-8-yl)methanone]",2.6 nM
4,"O=C(NCC1COC2(CCNCC2)C1)c1ccc(Nc2nc3c(N4CCC(O)(c5ccc(Cl)cc5)CC4)cccn3n2)cc1 (centres unmarked) [Example 1-220, 4-[[8-[4-(4-chlorophenyl)-4-hydroxy-1-piperidyl]-[1,2,4]triazolo[1,5-a]pyridin-2-yl]amino]-N-(1-oxa-8-azaspiro[4.5]decan-3-ylmethyl)benzamide]",1.31 nM
5,"O=C(NC1COC2(CCNCC2)C1)c1ccc(Nc2nc3c(N4CCC(O)(c5ccc(Cl)cc5)CC4)cccn3n2)cc1 (centres unmarked) [Example 1-221, 4-[[8-[4-(4-chlorophenyl)-4-hydroxy-1-piperidyl]-[1,2,4]triazolo[1,5-a]pyridin-2-yl]amino]-N-(1-oxa-8-azaspiro[4.5]decan-3-yl)benzamide]",1.17 nM
6,"O=C(NCC1CCC2(CCNCC2)O1)c1ccc(Nc2nc3c(N4CCC(O)(c5ccc(Cl)cc5)CC4)cccn3n2)cc1 (centres unmarked) [Example 1-222, 4-[[8-[4-(4-chlorophenyl)-4-hydroxy-1-piperidyl]-[1,2,4]triazolo[1,5-a]pyridin-2-yl]amino]-N-(1-oxa-8-azaspiro[4.5]decan-2-ylmethyl)benzamide]",2.12 nM
7,"O=C(c1ccc(Nc2nc3c(N4CCC(O)(c5ccc(Cl)cc5)CC4)cccn3n2)cc1)N1CCCC2(CCCN2)CC1 (centres unmarked) [Example 1-223, [4-[[8-[4-(4-chlorophenyl)-4-hydroxy-1-piperidyl]-[1,2,4]triazolo[1,5-a]pyridin-2-yl]amino]phenyl]-(1,9-diazaspiro[4.6]undecan-9-yl)methanone]",3.54 nM
8,"O=C(c1ccc(Nc2nc3c(N4CCC(O)(c5ccc(Cl)cc5)CC4)cccn3n2)cc1)N1CC2(CCNC2)C1 [Example 1-224, [4-[[8-[4-(4-chlorophenyl)-4-hydroxy-1-piperidyl]-[1,2,4]triazolo[1,5-a]pyridin-2-yl]amino]phenyl]-(2,7-diazaspiro[3.4]octan-2-yl)methanone]",0.95 nM
9,"O=C(c1ccc(Nc2nc3c(N4CCC(O)(c5ccc(Cl)cc5)CC4)cccn3n2)cc1)N1CCC2(CCCN2)CC1 [Example 1-226, [4-[[8-[4-(4-chlorophenyl)-4-hydroxy-1-piperidyl]-[1,2,4]triazolo[1,5-a]pyridin-2-yl]amino]phenyl]-(1,8-diazaspiro[4.5]decan-8-yl)methanone]",1.81 nM
10,"O=C(c1ccc(Nc2nc3c(N4CCC(O)(c5ccc(Cl)cc5)CC4)cccn3n2)cc1)N1CCCC12CCNCC2 [Example 1-227, [4-[[8-[4-(4-chlorophenyl)-4-hydroxy-1-piperidyl]-[1,2,4]triazolo[1,5-a]pyridin-2-yl]amino]phenyl]-(1,8-diazaspiro[4.5]decan-1-yl)methanone]",2.85 nM
11,"O=C(c1ccc(Nc2nc3c(N4CCC(O)(c5ccc(Cl)cc5)CC4)cccn3n2)cc1)N1CCCC12CCCNC2 (centres unmarked) [Example 1-233, [4-[[8-[4-(4-chlorophenyl)-4-hydroxy-1-piperidyl]-[1,2,4]triazolo[1,5-a]pyridin-2-yl]amino]phenyl]-(1,9-diazaspiro[4.5]decan-1-yl)methanone]",2.58 nM
12,O=C(c1ccc(Nc2nc3c(N4CCC(O)(c5ccc(Cl)cc5)CC4)cccn3n2)cc1)N1C[C@@H]2CCN[C@@H]2C1 [Example 1-234],1.93 nM
13,"O=C(c1ccc(Nc2nc3c(N4CCC(O)(c5ccc(Cl)cc5)CC4)cccn3n2)cc1)N1C[C@H]2CNC[C@H]2C1 [Example 1-235, [(3aR,6aS)-2,3,3a,4,6,6a-hexahydro-1H-pyrrolo[3,4-c]pyrrol-5-yl]-[4-[[8-[4-(4-chlorophenyl)-4-hydroxy-1-piperidyl]-[1,2,4]triazolo[1,5-a]pyridin-2-yl]amino]phenyl] methanone]",1.86 nM
14,"O=C(c1ccc(Nc2nc3c(N4CCC(O)(c5ccc(Cl)cc5)CC4)cccn3n2)cc1)N1CCC2(CCN2)CC1 [Example 1-236, [4-[[8-[4-(4-chlorophenyl)-4-hydroxy-1-piperidyl]-[1,2,4]triazolo[1,5-a]pyridin-2-yl]amino]phenyl]-(1,7-diazaspiro[3.5]nonan-7-yl)methanone]",2.56 nM

# More lines, now with the values ahead:
row,Ki,Compound
1,2.34 nM,"O=C(c1ccc(Nc2nc3c(N4CCC(O)(c5ccc(Cl)cc5)CC4)cccn3n2)cc1)N1CCCC2(CCNCC2)C1 [Example 1-216, [4-[[8-[4-(4-chlorophenyl)-4-hydroxy-1-piperidyl]-[1,2,4]triazolo[1,5-a]pyridin-2-yl]amino]phenyl]-(2,9-diazaspiro[5.5]undecan-2-yl)methanone]"
2,1.92 nM,"O=C(c1ccc(Nc2nc3c(N4CCC(O)(c5ccc(Cl)cc5)CC4)cccn3n2)cc1)N1CCC2(CCNCC2)CC1 [Example 1-218, [4-[[8-[4-(4-chlorophenyl)-4-hydroxy-1-piperidyl]-[1,2,4]triazolo[1,5-a]pyridin-2-yl]amino]phenyl]-(3,9-diazaspiro[5.5]undecan-3-yl)methanone]"
3,1.79 nM,"O=C(c1ccc(Nc2nc3c(N4CCC(O)(c5ccc(Cl)cc5)CC4)cccn3n2)cc1)N1CCOC2(CCCNC2)C1 (centres unmarked) [Example 1-225, [4-[[8-[4-(4-chlorophenyl)-4-hydroxy-1-piperidyl]-[1,2,4]triazolo[1,5-a]pyridin-2-yl]amino]phenyl]-(1-oxa-4,8-diazaspiro[5.5]undecan-4-yl)methanone]"
4,2.94 nM,"O=C(c1ccc(Nc2nc3c(N4CCC(O)(c5ccc(Cl)cc5)CC4)cccn3n2)cc1)N1CCCC2(CNCCO2)C1 (centres unmarked) [Example 1-229, [4-[[8-[4-(4-chlorophenyl)-4-hydroxy-1-piperidyl]-[1,2,4]triazolo[1,5-a]pyridin-2-yl]amino]phenyl]-(1-oxa-4,8-diazaspiro[5.5]undecan-8-yl)methanone]"
5,2.63 nM,"O=C(c1ccc(Nc2nc3c(N4CCC(O)(c5ccc(Cl)cc5)CC4)cccn3n2)cc1)N1CCC2(CC1)CNCCO2 [Example 1-230, [4-[[8-[4-(4-chlorophenyl)-4-hydroxy-1-piperidyl]-[1,2,4]triazolo[1,5-a]pyridin-2-yl]amino]phenyl]-(1-oxa-4,9-diazaspiro[5.5]undecan-9-yl)methanone]"
6,1.78 nM,"O=C(c1ccc(Nc2nc3c(N4CCC(O)(c5ccc(Cl)cc5)CC4)cccn3n2)cc1)N1CCOC2(CCNCC2)C1 [Example 1-231, [4-[[8-[4-(4-chlorophenyl)-4-hydroxy-1-piperidyl]-[1,2,4]triazolo[1,5-a]pyridin-2-yl]amino]phenyl]-(1-oxa-4,9-diazaspiro[5.5]undecan-4-yl)methanone]"
